# Measured values taken from PMC4336329 (PLoS ONE, 2015).
# Among all 310,000 compounds or so, about 2,200 (0.71%) showed an effect of 50% or more. Effects have a minus sign here. The list shows a part of the results.
# Target: human ether-à-go-go-related gene (hERG) potassium channel (human, UniProt Q12809)
# Test: primary screen, population patch clamp on CHO cells stably expressing hERG
# human ether-à-go-go-related gene (hERG) potassium channel, sequence (Q12809 whole entry, looked up): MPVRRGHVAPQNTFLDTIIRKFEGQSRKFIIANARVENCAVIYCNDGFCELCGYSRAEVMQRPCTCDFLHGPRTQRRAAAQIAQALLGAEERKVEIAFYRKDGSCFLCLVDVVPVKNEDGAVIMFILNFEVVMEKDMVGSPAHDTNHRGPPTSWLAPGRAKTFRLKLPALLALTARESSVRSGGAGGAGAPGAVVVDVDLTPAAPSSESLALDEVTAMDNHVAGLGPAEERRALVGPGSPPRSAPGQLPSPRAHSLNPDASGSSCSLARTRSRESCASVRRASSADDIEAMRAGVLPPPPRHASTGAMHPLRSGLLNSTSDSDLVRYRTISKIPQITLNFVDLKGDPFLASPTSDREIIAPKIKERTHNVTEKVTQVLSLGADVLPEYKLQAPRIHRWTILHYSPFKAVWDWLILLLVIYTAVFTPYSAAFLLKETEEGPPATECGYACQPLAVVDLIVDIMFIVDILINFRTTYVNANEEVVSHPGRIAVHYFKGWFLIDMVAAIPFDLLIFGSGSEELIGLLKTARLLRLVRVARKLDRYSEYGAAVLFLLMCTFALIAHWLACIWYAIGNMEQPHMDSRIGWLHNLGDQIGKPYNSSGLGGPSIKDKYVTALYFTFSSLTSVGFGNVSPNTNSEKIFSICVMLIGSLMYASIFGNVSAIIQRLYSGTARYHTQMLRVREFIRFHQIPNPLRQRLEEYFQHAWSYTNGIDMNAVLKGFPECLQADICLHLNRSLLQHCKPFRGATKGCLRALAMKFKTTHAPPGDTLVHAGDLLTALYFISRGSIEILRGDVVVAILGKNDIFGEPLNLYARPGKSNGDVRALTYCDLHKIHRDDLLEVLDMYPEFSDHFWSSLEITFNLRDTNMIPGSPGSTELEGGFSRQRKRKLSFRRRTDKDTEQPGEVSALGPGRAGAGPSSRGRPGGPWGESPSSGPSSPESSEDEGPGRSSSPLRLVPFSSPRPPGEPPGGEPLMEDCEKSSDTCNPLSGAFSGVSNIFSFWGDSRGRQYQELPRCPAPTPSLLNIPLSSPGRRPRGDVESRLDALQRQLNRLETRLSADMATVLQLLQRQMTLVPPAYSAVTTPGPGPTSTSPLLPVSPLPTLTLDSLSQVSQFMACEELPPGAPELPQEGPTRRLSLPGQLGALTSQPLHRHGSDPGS
row,Compound,"hERG current change (%, negative = inhibition) at 1uM"
1,COc1cc(CO)ccc1Oc1nnnn1-c1ccc(C(N)=O)cc1,4.09%
2,COc1ccc2oc(=O)c(C(=O)NCc3ccc(C)cc3)cc2c1,13.1%
3,COc1ccc(NC(=O)CCNS(=O)(=O)c2ccc3c(c2)CC(C)N3C(=O)C2CC2)cc1 (centres unmarked),-2.22%
4,COc1ccc2cc(CO)n(C)c2c1,9.79%
5,O=C(O)CCc1ccc(-c2cccs2)n1NC(=O)c1ccc(Cl)cc1Cl,-1.06%
6,CCNc1ccc(C(=O)OCC(=O)c2cc(C)n(Cc3ccc4c(c3)OCO4)c2C)cc1[N+](=O)[O-],5.58%
7,O=C(CN(CC1CCCO1)C(=O)CNS(=O)(=O)c1ccc(F)cc1)NCC1CCCO1 (centres unmarked),7.37%
8,COc1ccc(C(=O)NNC(=O)CSc2nnnn2-c2cc(OC)cc(OC)c2)cc1,17.6%
9,Cc1cc(-c2ccc(C)c(S(=O)(=O)Nc3cc(C)on3)c2)on1,1.77%
10,CN1CC[C@]2(CCN3CCc4c(oc5ccccc45)[C@@H]3C2)N(C)C1=O.Cl,-2.24%
11,Cc1ccc(OC(C)C(=O)Nc2ccc(S(=O)(=O)N3CCOCC3)cc2)cc1 (centres unmarked),11.8%
12,CC(C)(C)n1nnnc1C(c1cccnc1)N1CCN(c2ccccc2)CC1 (centres unmarked),8.68%
13,O=C(CSc1ncccn1)NN=C1CCCCCCC1,4.7%
14,CCn1c(COc2ccc(=O)n(-c3ccccc3)n2)nnc1SCc1ccc(OC)cc1,-34.1%
15,Cc1nc2ccccc2c2oc(C(=O)NCCCN3CCC(C)CC3)cc12,-13.8%
16,O=C(NCc1ccccc1)C(c1ccc(O)cc1)N(C(=O)Cn1nnc(-c2cccs2)n1)c1ccc2c(c1)OCCO2 (centres unmarked),11.8%
17,Cn1c(=O)[nH]c(=O)c2c1nc(N1CCC(Cc3ccccc3)CC1)n2Cc1ccccc1,13%
18,Cc1ccc(-c2c(C(=O)N/N=C/c3ccncc3)nnn2-c2nonc2N)cc1,15.5%
19,O=C(Cn1ncc2c3ccccc3n(Cc3ccccc3)c2c1=O)NCc1ccccn1,20.7%
20,CCCCCCNC(=O)c1ncn[nH]1,18.7%
21,O=C(Nc1ccc(C(=O)O)c(O)c1)c1ccccc1,8.4%
22,CCC1SC(N)=NC1=O (centres unmarked),12.6%

row,Compound,"hERG current change (%, negative = inhibition) at 1uM"
1,COc1ccc(CC(=O)N(C)CC(=O)Nc2ccc(F)cc2)cc1S(=O)(=O)N1CCOCC1,8.65%
2,COC(=O)c1ccc(Cn2c(O)c(N=NC(N)=S)c3ccccc32)o1,12.8%
3,CCOC(=O)N1CCC(NC(=O)CN2C(=O)COc3ccc(C(C)(C)C)cc32)CC1,-5.59%
4,CCCCn1c(SCC(=O)Nc2nnc(C)s2)nc2c1c(=O)n(C)c(=O)n2C,2.33%
5,C=CCOc1cccc(C2/C(=C(/O)c3ccc(C)cc3)C(=O)C(=O)N2CCN2CCOCC2)c1 (centres unmarked),3.69%
6,COc1ccc(OC)c(N(CC(=O)Nc2cccnc2)S(=O)(=O)c2ccc(OC)c(OC)c2)c1,8.38%
7,COc1nc(-c2cccc([N+](=O)[O-])c2)nc2ccccc12,14.1%
8,O=C(c1ccco1)N1N=C(c2ccc(Br)cc2)CC1c1ccco1 (centres unmarked),18.3%
9,COC(=O)C(O)(c1ccc(NC(=S)NC(=O)c2ccc(Cl)cc2Cl)cc1)C(F)(F)F (centres unmarked),12.7%
10,COc1ccc(-c2cn(-c3ccc(C)cc3)c(=O)n2CC(=O)Nc2cccc(F)c2)cc1,11.4%
11,Cn1c(SCc2ccc([N+](=O)[O-])cc2)nc2c(c1=O)SCC2,-3.68%
12,O=C(Nc1ccc(-c2cn3ccccc3n2)cc1)c1ccc(Cl)cc1,2.67%
13,CCOc1ccc(NC(=O)C2C3CC/C=C\CCC32)cc1 (centres unmarked),6.75%
14,COc1ccc(S(=O)(=O)NNC(=O)c2cc3ccccc3o2)cc1,13.8%
15,CC(=O)c1ccccc1OC(=O)c1ccco1,6.46%
16,COC(=O)c1ccc(COc2ccc3c(c2)CCC3)o1,5.9%
17,C=CCNc1nc(NC(C)(C)CO)nc(OC)n1,-1.93%
18,Cc1ccc(S(=O)(=O)Cc2ccc(C(=O)N3CCC(C)CC3)cc2)cc1,-6.49%
19,Cc1cc(NC(=S)Nc2cccc3ccccc23)n[nH]1,8.77%
20,CN1CCN(NC(=O)/C=C/c2ccc(Br)cc2)CC1,6.1%
21,O=C(NC1CCN(C(=O)N2c3ccccc3Sc3ccccc32)CC1)c1ccco1,9.89%
22,CSc1nsc(NC(=O)CCNC(=O)c2ccc([N+](=O)[O-])cc2)n1,-1.05%

row,Compound,"hERG current change (%, negative = inhibition) at 1uM"
1,COc1ccccc1N1CCN(Cc2ccccc2F)CC1,-0.226%
2,Cc1ccc(S(=O)(=O)N2CCC(C(=O)OC(C)C(=O)NC(N)=O)CC2)cc1C (centres unmarked),6.59%
3,Cc1ccc(S(=O)(=O)N(C)c2ccc3c(ncn3C)c2[N+](=O)[O-])cc1,-3.48%
4,COc1ccccc1CN1CCCC(CNC(=O)c2cccc3ccccc23)C1 (centres unmarked),5.37%
5,Cc1nc(CS(=O)(=O)c2ccc(Cl)cc2)cc(N2CCOCC2)n1,13%
6,CCn1cc(Br)c(C(=O)Nc2ccc(Cl)c(Cl)c2)n1,12.6%
7,CC1CCN(CCC(=O)N2CCCc3c2c(=O)oc2ccc(O)cc32)CC1,-11.5%
8,O=C(Nc1ccc2c(c1)OCO2)O[C@@H]1C[C@H]2CCCC(=O)N3CC[C@@H](C1)[C@@H]23,8.71%
9,Cc1oc(CN2CCOCC2)cc1C(=O)O,7.66%
10,CC1=C(C(=O)NC(C)c2ccccc2)C2(CCC(C)CC2)OC1=O (centres unmarked),0.922%
11,COc1ccc(NC(=O)NC2CCCc3ccccc32)c(OC)c1 (centres unmarked),8.36%
12,Cc1[nH]c2ccccc2c1C(=O)COC(=O)c1c(-c2ccccc2Cl)noc1C,1.94%
13,CCCCCC1=NN2C(=O)CC(=O)N=C2S1,5.37%
14,Cc1ccccc1-c1noc(CCC(=O)NCc2ccco2)n1,2.3%
15,Cc1cccc2c1cnn2C(=O)Nc1ccc(Br)cc1F,20.5%
16,CCn1cc(C(=O)O)c(=O)c2cc(F)c(N3CCN(C(=S)NC(=O)c4ccc(F)cc4)CC3)cc21,4.19%
17,CCOc1ccc(NC(=O)CC2C(=O)N(C)C(=S)N2Cc2ccco2)cc1 (centres unmarked),-13.2%
18,CC(=O)O.COc1ccc(OC)c(C2CC(=O)C(C)C(c3cc(OC)ccc3OC)N2)c1 (centres unmarked),7.49%
19,C=CCNC(=O)c1onc(CSc2ccccc2CC)c1C(=O)O,9.32%
20,O=C(Nc1nnc(COc2ccc(Br)cc2)s1)c1ccco1,15.9%
21,COc1ccccc1N1CCN(CC(=O)Nc2sccc2C#N)CC1,2.93%
22,CN(C)c1ccc(/C=N/NC(=O)CCC(=O)NCc2ccccc2)cc1,8.58%

row,Compound,"hERG current change (%, negative = inhibition) at 1uM"
1,O=S(=O)(c1c(F)cccc1F)N1CCCC2CCCCC21 (centres unmarked),12.7%
2,COC(=O)c1ccc(OCC(O)Cn2nnc3ccccc32)cc1 (centres unmarked),1.7%
3,CC(C)c1ccc(NC(=O)CSC(C)c2nc3ccccc3c(=O)[nH]2)cc1 (centres unmarked),5.48%
4,COC(=O)C1=CO[C@@H](C)[C@@H]2CN(CCc3c[nH]c4ccccc34)CC[C@H]12,-16.6%
5,COc1ccccc1N(CC(=O)NCCc1ccccc1)C(=O)CCC(=O)Nc1ccccn1,4.77%
6,Cc1ccc2c(c1)N(CC(=O)Nc1ncccc1C)C(=O)C(C(C)C)O2 (centres unmarked),15.8%
7,O=C(Nc1ccccc1C(=O)O)c1ccc2c(c1)C(=O)N(c1cccc([N+](=O)[O-])c1)C2=O,13.1%
8,O=C1COc2ccc(OCc3ccc(F)cc3)cc21,0.352%
9,CCn1ccnc1CNC(=O)c1ccc2oc(CCCc3ccccc3)nc2c1,4.28%
10,COc1cc(/C=N/NC(=O)c2ccc(CSc3nncn3C)cc2)ccc1OCC(=O)N1CC(C)OC(C)C1 (centres unmarked),9.4%
11,Cc1ccc(OCc2cc(C(=O)NCc3cn4ccccc4n3)no2)cc1C,-0.347%
12,CC1CCCN(C(=O)C2CCN(CC3CC=CCC3)CC2)C1.O=C(O)C(=O)O (centres unmarked),-0.802%
13,COc1ccc(CN2C3CCCC2CC(NC(=O)Nc2ccccc2C)C3)cc1 (centres unmarked),-36.5%
14,O=C1C2C3C=CC(CC3)C2C(=O)N1c1ccc(Cl)cc1 (centres unmarked),13.9%
15,Cc1ccc(CC(=O)NCCS(=O)c2ccc(Cl)cc2)cc1 (centres unmarked),-5.69%
16,O=C1NC(=Nc2cccc(Cl)c2)SC1Cc1cccc(Cl)c1Cl (centres unmarked),13.4%
17,COc1ccc(C2c3[nH]c4ccccc4c3CCN2C(=O)c2ccc(=O)n(C)n2)c(F)c1 (centres unmarked),17.7%
18,Cc1ccc(S(=O)(=O)N2CCC(=O)N(CCOCc3cccc(C)c3)CC2)cc1,6.47%
19,C/C(Cl)=C\Cn1c(N2CCCCCC2)nc2c1c(=O)n(C)c(=O)n2C,10.2%
20,COc1cccc(N(C(=O)c2snc(C(N)=O)c2N)C(C(=O)NCC2CCCO2)c2cccs2)c1 (centres unmarked),11.5%
